Reference: IntAct's records for PubMed 27720922

B1: G-protein coupled receptor 143 (Homo sapiens), P51810 (parent)
chain: MASPRLGTFCCPTRDAATQLVLSFQPRAFHALCLGSGGLRLALGLLQLLPGRRPAGPGSPATSPPASVRILRAAAACDLLGCLGMVIRSTVWLGFPNFVDSVSDMNHTEIWPAAFCVGSAMWIQLLYSACFWWLFCYAVDAYLVIRRSAGLSTILLYHIMAWGLATLLCVEGAAMLYYPSVSRCERGLDHAIPHYVTMYLPLLLVLVANPILFQKTVTAVASLLKGRQGIYTENERRMGAVIKIRFFKIMLVLIICWLSNIINESLLFYLEMQTDINGGSLKPVRTAAKTTWFIMGILNPAQGFLLSLAFYGWTGCSLGFQSPRKEIQWESLTTSAAEGAHPSPLMPHENPASGKVSQVGGQTSDEALSMLSEGSDASTIEIHTASESCNKNEGDPALPTHGDL
partner: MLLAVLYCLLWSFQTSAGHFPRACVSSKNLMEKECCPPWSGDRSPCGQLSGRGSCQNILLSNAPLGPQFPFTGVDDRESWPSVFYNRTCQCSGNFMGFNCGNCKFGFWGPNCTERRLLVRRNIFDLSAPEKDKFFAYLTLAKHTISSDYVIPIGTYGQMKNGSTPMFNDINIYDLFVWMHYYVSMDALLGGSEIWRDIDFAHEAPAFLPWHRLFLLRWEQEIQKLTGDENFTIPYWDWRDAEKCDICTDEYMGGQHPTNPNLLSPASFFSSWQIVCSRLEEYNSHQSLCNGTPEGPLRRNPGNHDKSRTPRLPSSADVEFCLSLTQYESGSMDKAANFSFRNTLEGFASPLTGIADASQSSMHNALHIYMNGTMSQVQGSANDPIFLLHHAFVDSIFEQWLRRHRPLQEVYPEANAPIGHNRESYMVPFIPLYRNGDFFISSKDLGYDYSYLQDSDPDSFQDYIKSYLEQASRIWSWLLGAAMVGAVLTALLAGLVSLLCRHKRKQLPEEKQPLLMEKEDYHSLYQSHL
B2: G-protein coupled receptor 143 (Homo sapiens), P51810 (parent)
chain: B1 chain
partner: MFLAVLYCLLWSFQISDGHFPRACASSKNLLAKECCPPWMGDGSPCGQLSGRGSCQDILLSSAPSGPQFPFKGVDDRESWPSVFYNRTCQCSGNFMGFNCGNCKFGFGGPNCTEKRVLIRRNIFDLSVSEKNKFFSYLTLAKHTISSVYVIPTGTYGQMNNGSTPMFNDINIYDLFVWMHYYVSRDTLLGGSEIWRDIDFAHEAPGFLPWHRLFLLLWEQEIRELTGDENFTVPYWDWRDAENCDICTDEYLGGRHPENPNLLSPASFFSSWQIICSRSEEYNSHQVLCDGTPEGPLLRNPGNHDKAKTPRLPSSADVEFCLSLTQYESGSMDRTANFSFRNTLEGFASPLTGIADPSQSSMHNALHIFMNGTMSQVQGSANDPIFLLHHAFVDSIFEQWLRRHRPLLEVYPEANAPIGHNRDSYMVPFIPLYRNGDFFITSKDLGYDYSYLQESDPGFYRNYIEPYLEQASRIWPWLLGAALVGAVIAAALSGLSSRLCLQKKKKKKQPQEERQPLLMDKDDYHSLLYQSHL

Variants of: B1
Details: with tyro_human TYR

effect of a mutation on the interaction	Variant
with no effect	MASPRLGTFCCPTRDAATQLVLSFQPRAFHALCLGSGGLRLALGLLQLLPGRRPAGPGSPATSPPASVRILRAAAACDLLGCLGMVIRSTVWLGFPNFVDSVSDMNHTEIWPAAFCVGSAMWIQLLYSACFWWLFCYAVDAYLVIRRSAGLSTILLYHIMAWGLATLLCVEGAAMLYYPSVSRCERGLDHAIPHYVTMYLPLLLVLVANPILFQKTVTAVASAAKGRQGIYTENERRMGAVIKIRFFKIMLVLIICWLSNIINESLLFYLEMQTDINGGSLKPVRTAAKTTWFIMGILNPAQGFLLSLAFYGWTGCSLGFQSPRKEIQAASLTTSAAEGAHPSPLMPHENPASGKVSQVGGQTSDEALSMLSEGSDASTIEIHTASESCNKNEGDPALPTHGDL [L223A;L224A;W329A;E330A]

Variants of: B2
Details: with tyro_mouse Tyr

effect of a mutation on the interaction	Variant
with no effect	MASPRLGTFCCPTRDAATQLVLSFQPRAFHALCLGSGGLRLALGLLQLLPGRRPAGPGSPATSPPASVRILRAAAACDLLGCLGMVIRSTVWLGFPNFVDSVSDMNHTEIWPAAFCVGSAMWIQLLYSACFWWLFCYAVDAYLVIRRSAGLSTILLYHIMAWGLATLLCVEGAAMLYYPSVSRCERGLDHAIPHYVTMYLPLLLVLVANPILFQKTVTAVASAAKGRQGIYTENERRMGAVIKIRFFKIMLVLIICWLSNIINESLLFYLEMQTDINGGSLKPVRTAAKTTWFIMGILNPAQGFLLSLAFYGWTGCSLGFQSPRKEIQAASLTTSAAEGAHPSPLMPHENPASGKVSQVGGQTSDEALSMLSEGSDASTIEIHTASESCNKNEGDPALPTHGDL [L223A;L224A;W329A;E330A]
